Out of some 2,800 compounds screened, fewer than 10 were called active. The call rests on the fitted dose curve; in most records, active means well fitted curve in the direction sought with a large enough effect; inconclusive means small, poorly fitted or top-dose-only effect, or another doubt; inactive means no such curve, though single readings can be large or run the other way. The list shows a part of the results.
These compounds were tested against Metallo-beta-lactamase type 2 (Klebsiella pneumoniae) (UniProt C7C422) (assay: qHTS to identify inhibitors of the New Delhi Metallo-beta-lactamase (NDM): Meropenem screen against the machine-based learning selections.). Conditions: Purified NDM-1, meropenem hydrolysis, absorbance 300 nm; at 38.4 µM (top of the series) unless noted.
UniProt C7C422, sequence (C7C422 whole entry, looked up): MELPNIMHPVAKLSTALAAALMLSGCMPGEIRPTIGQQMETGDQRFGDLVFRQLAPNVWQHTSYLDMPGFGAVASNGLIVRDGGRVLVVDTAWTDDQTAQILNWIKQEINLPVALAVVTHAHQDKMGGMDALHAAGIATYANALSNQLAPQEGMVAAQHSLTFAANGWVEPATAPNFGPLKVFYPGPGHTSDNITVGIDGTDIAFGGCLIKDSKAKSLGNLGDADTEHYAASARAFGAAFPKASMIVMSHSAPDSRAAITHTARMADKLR
Method in brief: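 Hydrolysis by 2 nM NDM-1 was followed by absorbance after >30 min compound preincubation in HEPES pH 7.0 buffer with 1 uM Zn2SO4. For nitrocefin (16.7 uM, 15 min, 485 nm) and meropenem (50 uM, 30 min, 300 nm), each substrate ran on separate plates.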
Further: % of control where 0% means no effect.

Activity change, negative = inhibition, inactive:
O=C(O)c1cc(-c2cn[nH]c2)cc(S(=O)(=O)N2CCSCC2)c1 1.21%
Cc1ccc(CN2CC[C@H](c3nnc(-c4ccco4)o3)C2)o1 -1.92% [at 57.5 µM]
CNC(=O)c1cccc(-c2cnc(Nc3ccncc3)c3c2CCO3)c1 -0.986% [at 57.5 µM]
O=C(c1ccccc1Cl)N1CCCC(c2nn(-c3ccccc3)c(=O)[nH]2)C1 (stereo unspecified) 3.06%
CC1=C[C@@H](CNC(=O)Nc2ccc(Cl)cc2)[C@H](C(C)C)C[C@H]1CC(=O)N(C)Cc1cccnc1 0.724%
O=C(c1cccs1)C1CCCN(C(=O)c2ccc3nccn3c2)C1 (stereo unspecified) 0.353%
CCN(CC)Cc1cnc2c(C(=O)NCCc3c[nH]c4ccccc34)cnn2c1 -0.28%
Cc1ccc(NC(=O)c2ccccc2)c(NC(=O)C2CCN(CC(N)=O)CC2)c1 -1.35%
OC[C@H]1CCN(c2ccnc3c(C(F)(F)F)cccc23)C[C@H]1O 1.06%
CC(=O)N1CCN(c2cc(-c3noc([C@@H]4CCCN4Cc4ccc(N(C)C)cc4)n3)ccn2)CC1 0.877%
NC(=O)[C@@H](Cc1c[nH]c2ccccc12)NC(=O)[C@@H]1[C@@H](NC(=O)NC2CCCCC2)CCN1C(=O)c1cnccn1 2.48%
COc1ccc(CNC(=O)C[C@@H]2C[C@H]3O[C@H](CNC(=O)NCc4ccccc4)[C@@H](O)[C@H]3O2)cc1 -0.708%
O=C(NC[C@H]1O[C@@H]2C[C@@H](CC(=O)N3CCC(F)(F)C3)O[C@@H]2[C@@H]1O)Nc1cccc(Cl)c1 0.968%
COc1ccccc1N1CCN([C@@H]2[C@H](O)[C@H](CO)O[C@@H]2CN(Cc2ccc(F)cc2)Cc2ccc(F)cc2)CC1 58.5%
Oc1cccc(Nc2cnc3ccc(-c4ccc(F)cc4)nn23)c1 11.4% [at 57.5 µM]
O=c1c2nc(Nc3ccc(C(F)(F)F)cc3)ccc2ncn1Cc1ccccn1 5.89% [at 57.5 µM]
CCN(CC)C(=O)C(C)[C@@H]1CC[C@@]2(C)Cc3sc(NC(=O)C4CC4)nc3[C@@H](C)[C@@H]2[C@H]1O (stereo partly specified) -2.96%
NC(=O)c1cccc(-c2cc3c(cn2)CN(Cc2ccncc2)CCN3)c1 0.513% [at 57.5 µM]
COc1ccccc1-c1ccnc(N[C@H]2CO[C@H]3[C@@H]2OC[C@@H]3NC(=O)Nc2cccc(C(F)(F)F)c2)n1 0.821%
CC(=O)c1[nH]c(C)c(C(=O)N2CCCC(O)(CNC(=O)N(C)C)CC2)c1C (stereo unspecified) 8.7%
Oc1ccccc1CN1CC(CNc2cccnc2)C2(C1)CN(c1ccccc1)C2 (stereo unspecified) 1.58% [at 57.5 µM]
COc1ccc(CN2C[C@H](O)C[C@H]2c2nc(CS(=O)(=O)c3ccc(F)cc3)no2)cc1 -2.39%
O=C(N[C@@H]1CCN(C(=O)c2ccc3cc[nH]c3c2)C[C@H]1O)c1cnccn1 2.75%
NC(=O)C1CCN(CC[C@H]2CN(C(=O)Nc3ccc(OC(F)(F)F)cc3)CC[C@H]2CC(=O)O)CC1 5.2%
COCCNC(=O)[C@@H]1CCC[C@@H](NC(=O)c2ccc(Cl)cc2)CN(C)C(=O)C1 0.782% [at 57.5 µM]
Cc1ccc(F)cc1S(=O)(=O)N1CCn2c(n[nH]c2=O)C1 -0.877%
O=C(O)CN1CCNc2nc(CNc3ccc(F)cc3)n(Cc3ccccc3)c2C1=O 12.3% [at 57.5 µM]
CNC(=O)[C@@H](c1ccccc1OC)N1CCC[C@H]1C(=O)N1CC[C@@H](O)C1 55.7% [at 57.5 µM]
Cc1cccc(-c2cnc3n[nH]c(-c4ccccc4)c3n2)c1 -0.0468% [at 76.7 µM]
O=C(c1cccnc1)N1CC[C@H]2COC(=O)N2c2cc(F)ccc2C1 1.34% [at 57.5 µM]
Cc1ccc(S(=O)(=O)NC[C@H]2O[C@H](Cc3cc(-c4cccc(O)c4)on3)CC[C@@H]2O)cc1 -3.19%
CCCNC(=O)N[C@@H]1C[C@H](Cn2cc(C3CC3)nn2)[C@@H](O)[C@H]1O 42.3% [at 57.5 µM]
Cc1ccccc1-c1cnc2[nH]cc(CC(=O)NCc3ccccc3)c2c1 -0.253% [at 57.5 µM]
CCO[C@H]1CN(C(=O)Cc2ccc3nc(C)[nH]c3c2)C[C@@H]1O 2.16%
Cc1noc(C)c1[S+](=O)([O-])N1CCC2(C1)N=C(c1cccnc1)C(=O)N2 (stereo unspecified) 2.73%
Fc1ccc2nc([C@H]3CCN(C4CCC4)C3)[nH]c2c1 1.46% [at 76.7 µM]
Fc1ccccc1CN1CCNc2cc(Nc3cccnc3)ncc2C1 6.19% [at 57.5 µM]
Nc1nc(C2CC(O)C2)cc(N2CCCN(Cc3ccccn3)CC2)n1 (stereo unspecified) 2.71%
O=c1[nH]c(-c2ccc(F)cc2)nc2c1CCN(S(=O)(=O)c1cccs1)C2 1.01%
Cc1noc2c(-c3cccc(O)c3)cc(-c3cccs3)nc12 1.79% [at 57.5 µM]
CNC(=O)C1CCCN(Cc2nc(-c3cccc(Oc4ccccc4)c3)oc2C)C1 (stereo unspecified) 3.84%
COCc1ccc(CN[C@H]2C[C@@H](Cc3cc(CN4CCCCC4)on3)C2(C)C)o1 -1.59% [at 57.5 µM]
COc1ccc2nc3n(c2c1)[C@@H](CNC(=O)c1ccc(F)cc1)COC3 -0.619% [at 57.5 µM]
Fc1ccc(CNc2cc3c(cn2)NCCN(Cc2ccccc2)C3)cc1 -1.35% [at 57.5 µM]
O=C(NCC1(COc2cccnc2)C[C@@H](O)[C@@H](O)C1)Nc1cccnc1 (stereo partly specified) 21.8% [at 57.5 µM]
COc1ccc(NC(=O)C2(C)CCCc3cnc(Nc4cccnc4)nc32)cc1 (stereo unspecified) 19.6% [at 57.5 µM]
C[C@@H]1CN(C(=O)CCN(C)S(C)(=O)=O)C[C@@]1(O)C1CC1 0.0588%
CC1(C)[C@H](Cc2cc(CCO)on2)C[C@@H]1N(S(C)(=O)=O)S(C)(=O)=O 13.4% [at 57.5 µM]
CCOC(=O)CCNC(=O)N1CCC(Oc2ncccc2C(=O)N2CCCCC2)C1 (stereo unspecified) 2.32%
NCCC[C@@H](N)C(=O)N1CCCC(c2ccccc2)(c2ccccc2)C1 14.8%
O=C(NCc1cc2n(n1)CCNC2)c1ccc2c(c1)ncn2CCO 46.8%
NS(=O)(=O)c1ccc(CNc2nccc(-c3cccnc3)n2)cc1 0.369%
CN(C)Cc1cn(C[C@H]2C[C@@H](NC(=O)c3nc4ccccc4s3)[C@H](O)[C@@H]2O)nn1 12.9%
CCCN(CC1CC1)C(=O)C1CCC(=O)N(Cc2ccc(Cl)cc2)C1 (stereo unspecified) -0.692%
Cc1cccc2c1nc1n2[C@@H](CNCc2ccc(C#N)cc2)COC1 -3.69% [at 57.5 µM]
Cc1cc(C(=O)N2CC[C@H](NS(=O)(=O)c3cccs3)C[C@H]2C(=O)N[C@H](C)C(N)=O)n(C)n1 2.48%
COCc1cc(C[C@@H]2CC[C@H](O)[C@@H](CNC(=O)C3CCCC3)O2)no1 1.91% [at 57.5 µM]
O[C@H]1CC[C@@H](Cc2cc(COc3ccccc3)on2)O[C@@H]1CN(CC1CC1)CC1CC1 0.357% [at 57.5 µM]
CC(C)NS(=O)(=O)c1cc(C(=O)O)cc(-c2cccc3c2OCC3)c1 6.54%
COc1ccc([C@H]2C[C@@H](O)[C@@H](O)[C@@H]2NCc2ccc(OC)nc2)cc1 0.0934% [at 57.5 µM]
COCCNC(=O)c1ccc2c(c1)N(C)C(CC(=O)N1CCCCC1)CO2 (stereo unspecified) -0.371%
O=C(NCc1c[nH]c2ncccc12)c1ccccn1 2.58% [at 57.5 µM]
Cc1nn(-c2ccccc2Cl)c(=O)n1CC(=O)N(C)C(C)c1ccon1 (stereo unspecified) -1.15%
Oc1cccc(CN(Cc2ccsc2)Cc2ccco2)c1 0.491%
c1ccc2c(c1)cnn2CCCn1ccnc1-c1cc2n(n1)CCCNC2 39.2%
COC(=O)c1cc2n(n1)CCCN(C(=O)c1cc(CC(C)C)no1)C2 -0.232%
O=C(O)c1cc(Br)cc(S(=O)(=O)NCC2CCCO2)c1 (stereo unspecified) 12.5%
O=C1N[C@@H]2CCN(C(=O)c3ccc(-c4ccccc4)cc3)[C@@H]2C(=O)N1c1ccc(F)cc1 0.84% [at 57.5 µM]
OC1(CN2CCCCC2)CCN(c2nc3ccccc3s2)C1 (stereo unspecified) 3.8%
O=C1NCCC[C@@H]1NC(=O)[C@H]1CN(C(=O)c2cccc(F)c2)CCN1C(=O)c1cccs1 -0.908%
Cc1ccc(CN2CC[C@@H](CO)N(C)c3cccnc3C2)s1 -1.6% [at 57.5 µM]
CC(C)CCN1CCc2[nH]nc(C(=O)N(C)C)c2C1 -0.494%
COCC(=O)N1CCCc2nc(C)nc(-c3ccc(O)cc3)c2C1 2.17% [at 57.5 µM]
COc1cccc(Nc2n[nH]c(C(O)c3cccc(C(F)(F)F)c3)n2)c1 (stereo unspecified) -0.292% [at 57.5 µM]
C[S+](=O)([O-])CCn1ncc2cc(OCc3cccc(-c4cccc(O)c4)c3)ccc21 -1.67% [at 57.5 µM]
COC(=O)[C@H](CC1CCCCC1)NC(=O)[C@H]1CN(C(=O)c2cccc(F)c2)CCN1C(C)=O -0.971%

Reference: PubChem BioAssay AID1794842 (National Center for Advancing Translational Sciences (NCATS), 2023)
